Source: PubChem BioAssay AID1671194 (National Center for Advancing Translational Sciences (NCATS), 2021)
The campaign covered roughly 140,000 compounds. About 240 (0.17%) were called active. The inconclusive results got no clear call from the source; some entries with a clear call stand among them for comparison. Calls follow the shape of the dose curve; as a rule, active = well fitted inhibition curve with a large enough effect; inconclusive = small, poorly fitted or top-dose-only effect; inactive = no such curve, though single readings can be large or run the other way. Potencies of inconclusive entries are doubtful fits and often do not repeat.

assay: Primary qHTS assay for inhibitors of alpha-synuclein gene (SNCA) expression; details: HEK-293 SNCA-luciferase knock-in, luminescence, 24 h; activity change, negative = inhibition: at 57.2 µM (top of the series) unless noted; also: nearly all actives have a fitted effect of over 45% in size;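 as to activity change, negative = inhibition: plate controls were DMSO cells for no effect and cell-free wells for full effect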
Potency is read from the fitted curve at half-maximal effect; tags tell the direction and shape of the fitted curve.

Potency, inconclusive:
Cc1cc(C)cc(-c2ccc(CN3CCCC(NC(=O)Cc4cccc(Cl)c4)C3)cc2)c1 (centres undefined) 39.8 µM [inhibitor, single point]
COCCNc1oc(-c2ccccc2)nc1S(=O)(=O)c1ccc(Br)cc1 39.8 µM [inhibitor, single point]
COc1cccc(Cn2nnc3c(=O)[nH]c(C4CCN(C(=O)c5ccccc5Cl)CC4)nc32)c1 39.8 µM [inhibitor, single point]
Cc1ccc(N2CCN(C(=O)c3cnc(N4CCCCC4)c4ccccc34)CC2)c(C)c1 25.1 µM [inhibitor, single point]
CC(C)(C)C(=O)Oc1ccc2c(c1)nc(NC(=O)c1cccc([N+](=O)[O-])c1)n2CCCO 4.29 µM [inhibitor, single point]
Cc1ccc(N2CCn3c2nc2c3c(=O)n(CCCc3ccccc3)c(=O)n2C)cc1C 1.78 µM [inhibitor, full curve]
O=C(Cc1cccc(F)c1)N1CCC[C@H]1c1nc(-c2ccc(F)cc2)no1 17.8 µM [inhibitor, single point]
Cc1cccc(OCC(=O)N(Cc2ccc(C(C)(C)C)cc2)Cc2ccco2)c1 39.8 µM [inhibitor, single point]
Cc1ccc(C)c(CN2C(=O)c3ccccc3S(=O)(=O)c3ccc(C(=O)NCCCN4CCCC(C)C4)cc32)c1 (centres undefined) 39.8 µM [inhibitor, single point]
CCN(CC)CCCNC(=O)CSc1c2c(nc3cc(Cl)ccc13)CCCC2 39.8 µM [inhibitor, single point]
Cc1cnc(CC2CCCN(C(=O)C3(c4ccccc4)CC3)C2)n1Cc1ccc(F)cc1 (centres undefined) 39.8 µM [inhibitor, single point]
Cc1cccc2sc(N(CCCN(C)C)C(=O)c3ccc(Cl)s3)nc12 39.8 µM [inhibitor, single point]
COc1cccc(N2C(=O)NC(=NC3CCCC3)C23CCCN(CC2CCCCC2)C3)c1 (centres undefined) 17.8 µM [inhibitor, partial curve, poor fit]
CCc1ccccc1NC(=O)Cn1c(N2CCc3ccccc3C2)nc(C)cc1=O 25.1 µM [inhibitor, single point]
CCCCc1cc(C[C@H]2CNCC[C@H]2CC(=O)NCc2ccccc2)no1 35.5 µM [inhibitor, single point]
COc1ccc(C2CC(=O)N(Cc3ccc(F)cc3)c3ccccc3S2)cc1 (centres undefined) 39.8 µM [inhibitor, single point]
CC1(c2ccccc2)N(Cc2ccccc2)C(=O)OC12CCN(Cc1c[nH]c3ccccc13)CC2 (centres undefined) 39.8 µM [inhibitor, single point]
O=C1CC2(CCN(C(=O)c3ccccn3)CC2)Oc2ccccc2N1 10 µM [inhibitor, full curve]
Cc1nn2c(c1-c1cccnc1N1CCOCC1)N(Cc1ccccc1)CCC2 7.94 µM [inhibitor, full curve]
Cc1noc2c(NCCCn3ccnc3)cc(-c3cccc(C(F)(F)F)c3)nc12 12.6 µM [inhibitor, partial curve, poor fit]
COc1ccc(-c2cc(-c3ccc(F)cc3OC)cn3cncc23)cc1 35.5 µM [inhibitor, single point]
CCOc1ccc(NC(=O)CC2C(=O)N(c3ccccc3)C(=O)N2C2CCCCC2)cc1 (centres undefined) 17.8 µM [inhibitor, partial curve, poor fit]
Cn1ccnc1CN1C(=O)CO[C@H](c2ccc(NC(=O)c3ccc(C(F)(F)F)cc3)cc2)[C@H]1CO 31.6 µM [inhibitor, single point]
CC(=O)N1CCC(c2noc(-c3ccccn3)n2)C1 (centres undefined) 0.708 µM [inhibitor, partial curve, poor fit]
C=CCc1cccc(C=NNC(=O)CN2CCN(Cc3ccccc3)CC2)c1O 42.9 µM [inhibitor, single point]
COc1ccc(NS(=O)(=O)c2ccc3c(c2)CCN3C(=O)CCC(=O)O)cc1Cl 39.8 µM [inhibitor, single point]
Cc1ccc(C)c(CN2CCC(CNC(=O)Nc3ccc(Br)cc3F)CC2)c1 17.8 µM [inhibitor, partial curve, poor fit]
O=C(Cn1c(=O)oc2cc(S(=O)(=O)N3CCCCCC3)ccc21)NCc1ccccc1Cl 31.6 µM [inhibitor, single point]
O=C(NCCc1noc(-c2ccncc2)n1)c1c2c(nc3ccccc13)CCCC2 22.4 µM [inhibitor, single point]
CC(C)S(=O)(=O)N1CCC(Oc2ncccc2C(=O)N(C)C)C1 (centres undefined) 11.2 µM [inhibitor, partial curve, poor fit]
CC1=C[C@@H](CN2CCN(c3ncccn3)CC2)[C@H](C(C)C)C[C@H]1Cc1nnc(COc2ccc(F)cc2)o1 2.51 µM [inhibitor, partial curve, poor fit]
COc1cc(OC)c(NC2(c3ccccc3)C(=O)c3ccccc3C2=O)cc1Cl 25.1 µM [inhibitor, single point]
O=C(c1ccccc1OCC1CCCN(Cc2nccs2)C1)N1CCCCC1 (centres undefined) 6.31 µM [inhibitor, single point]
CCc1ccccc1NC(=O)Nc1ccc2c(c1)N(CC)C(=O)c1ccccc1S2 20 µM [inhibitor, partial curve, poor fit]
Cc1ccc(C2NC(=O)N(CC(=O)Nc3cccc(C#N)c3)C3=C2C(=O)OC3)cc1 (centres undefined) 39.8 µM [inhibitor, single point]
O=C(c1nnn2c1COC(c1ccc(Cl)cc1)C2)N1CCN(C(=O)C2(c3ccccc3)CC2)CC1 (centres undefined) 12.6 µM [inhibitor, partial curve, poor fit]
COc1cccc2c1OCCCN(C(=O)c1cn(C/C=C/c3ccccc3)nn1)C2 6.31 µM [inhibitor, full curve, poor fit]
CC(=O)N1CCN(c2nc3c(s2)CC(C(=O)Nc2ccc(F)c(Cl)c2)CC3)CC1 (centres undefined) 39.8 µM [inhibitor, single point]
CCc1cccc(C)c1NC(=O)c1cc(S(=O)(=O)NCc2ccccc2Cl)ccc1F 31.6 µM [inhibitor, single point]
O=C(CCC1N=C2c3ccccc3N=C(SCc3ccc(Cl)cc3)N2C1=O)NCCc1ccccc1 (centres undefined) 20 µM [inhibitor, partial curve, poor fit]
Cc1ccc(NS(=O)(=O)c2ccc3[nH]c(=O)oc3c2)c(C)c1 39.8 µM [inhibitor, single point]
CC(C)CN1CC[C@@]2(CCCN(S(=O)(=O)c3ccccc3)C2)C1 11.2 µM [inhibitor, partial curve]
O=C(Cn1c(=O)oc2cc(Cl)ccc21)Nc1cccc(C(F)(F)F)c1 39.8 µM [inhibitor, single point]

Activity change, negative = inhibition, inactive:
CCOCC(=O)N1CCN(c2nnnn2-c2ccccc2)CC(O)C1 (centres undefined) -13.3%
Cc1ccc(-n2c(C3CCN(C(=O)COc4ccc(Cl)cc4C)CC3)n[nH]c2=O)cc1 0.763%
Cc1ccccc1N(C)C1CN(Cc2ccc(C#N)cc2)C1 1.99% [at 87.6 µM]
CCN1c2cc(C(=O)Nc3ccc(C)c(C)c3)ccc2C(=O)N2CCCCC21 (centres undefined) -19.5%
Cc1noc(C)c1-c1cc2cc(C(C)C)oc2c(NCCc2ccccn2)n1 6.55% [at 87.6 µM]
O=c1[nH]c(=O)n(C2CCCCC2)c(O)c1C1=Nc2ccccc2SC(c2ccccc2)C1 (centres undefined) 95.7%
O=C(NC1CCCN(c2ccnc3ccnn23)C1)c1ccc2c(c1)OCO2 (centres undefined) 20.7%
O=c1[nH]c(C2CCCN(Cc3cccc(-c4cccnc4)c3)C2)nc2ccc(F)cc12 (centres undefined) -2.05%
CC(=O)Oc1c(-c2ccc(NC(=O)C(C)C)cc2)c(-c2ccc(F)cc2)nn1-c1ccc(F)cc1 0.689%
CC(C)Cn1c(=O)c(C(=O)NCCc2ccccc2)nc2cccnc21 0.237%
CN1c2cc(C(=O)Nc3ccc(F)c(Cl)c3)ccc2C(=O)N2CCCCC21 (centres undefined) 115%
O=C(NCC(F)F)C1CCCCN1Cc1ccc(-c2cccs2)cc1 (centres undefined) 43.8%
C=CCN1CCc2ccccc2N(CC(O)COc2ccc(OC)cc2)CCC1=O (centres undefined) 16.2% [at 25.6 µM]
COc1ccc(-c2nc(-c3c(C)noc3C)cc3c2cc(C)n3CCN(C)C)cn1 44.1% [at 87.6 µM]
O=C(NCc1ccccn1)C1CCN(c2nccc(-c3cccnc3)n2)CC1 50.5%
CC1(C(=O)NCc2ccccc2)CN(Cc2ccccc2)Cc2ccc(N3CCOCC3)nc21 (centres undefined) -19.7%
O=C(N[C@H]1CO[C@H]2[C@@H]1OC[C@@H]2n1cc(-c2ccccc2)nn1)c1ccc(C(F)(F)F)cc1 -16.1%
CC(=O)N[C@@H]1C=C(C(=O)NCCC(N)=O)C[C@@H](O)[C@@H]1O 11.2% [at 87.6 µM]
Cc1ccc(-c2ccc(CN)cc2)c(C)c1 4.31% [at 87.6 µM]
Cc1cc(C(=O)N[C@@H]2CN(S(C)(=O)=O)C[C@H]2CN(C)C)n[nH]1 4.27%
C#CCNC(=O)C[C@@H]1CCN(C(=O)CCCCC)C[C@@H]1CC -20.3% [at 87.6 µM]
